The source of these data is the supplement of paper PMC11417369.

The list shows a part of the results.

The test system of the experiment is PfSIP2 AP2 domain 1 (GST-tagged). In words: gcPBM binding intensity (ln(normalized median fluorescence intensity)); higher = stronger DNA binding. In short, it runs like this: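 An Agilent 4 × 180k array of primer-extended double-stranded 36-bp intergenic genomic probes, with negative controls, was incubated for 1 h with GST-tagged P. falciparum DNA-binding domains expressed in E. coli. Alexa488 anti-GST antibody detected bound protein, scanned at 488 nm. Binding intensity is the highest Masliner-normalised natural-log median intensity across replicate spots of either probe orientation.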
“AAATAGGGAATTTATGCACACAGTTAAGGGGGAAAA [CACACA_site2071]”: the “gcPBM binding intensity (ln)” value came out at 7.94. Next, “ATATATTATTATATATGTACTTATTTATAAATGATT [XGTACX_site7597]”: 7.32. For “AATAAATTAATAAGGTGTACATAAATAATTTATATA [XGTACX_site8278]”, the “gcPBM binding intensity (ln)” value came out at 6.99. Regarding “TAAATATAAACACAAACACACACATATATATATATA [CACACA_site7978]”, the “gcPBM binding intensity (ln)” value was 9.28. Next, “ATTCAAAAGGTTTAATGTACGTGATGTTTCACAAAT [XGTACX_site784]”: 6.96. Take “CATACTCTACATAGATGTACTCATTTAAAAAAAAAA [XGTACX_site6945]”: the “gcPBM binding intensity (ln)” value is 7.42.

Consider “ATTTTTTTTTTTTTTTTTTTTTTTTTCTCTCTCACT [CACACA_negctrl_site1046]”, for which the “gcPBM binding intensity (ln)” value was found to be 6.94. Next, “TTATATTAAACAAACACACACATATATATATATATA [CACACA_site2382]”: 9.54; “TTAACAAATGGACACACACACACACCCAAAAAAAAA [CACACA_site4443]”: 7.26. Next, “TGTTACATATTATAAATACATTAACTATTATATGTA [CACACA_negctrl_site1735]”: 6.84; “TATATATATATATATTGTACATATTGTATATATTGT [XGTACX_site3212]”: 9.46. Next, “TTTATAAAAAATTTTTTTTTTTTTTTTTAAATATAT [CACACA_negctrl_site146]”: 6.59; “TATATATATATTTATACACACATTAGTGTATCCATG [CACACA_site5609]”: 8.51; “TTGGCATACAGACACACACACACACGCCCACATATA [CACACA_site6425]”: 6.91. Consider “TTTTTTTTTTGTAGTTGTACGAACTAGCTATTTATG [XGTACX_site692]”, for which the “gcPBM binding intensity (ln)” value was 7.08.

As for “ATATATATATATATATGTACATATATATATTTTTTA [XGTACX_site5987]”, the “gcPBM binding intensity (ln)” value was determined as 9.52. As to “TTATTTTTTCAAGAATGTACTTACGAATTGTCGTAT [XGTACX_site1363]”, the “gcPBM binding intensity (ln)” value stood at 6.73. Next, “ATCAATACACATATATGTACATATAATAATTATCTT [XGTACX_site662]”: 7.35; “CAAAAAAACAAACACACACACACACCCATATATATA [CACACA_site3653]”: 7.37. With “TAATTACCATATGGTACACACATATATATATGTATA [CACACA_site3487]”, the “gcPBM binding intensity (ln)” value was found to be 7.19.

For “TTTCTTAAATATATGCGTACTCAAAATTGTTCTACA [XGTACX_site7995]”, the “gcPBM binding intensity (ln)” value worked out at 7.04. Next, “TAACCACAAAAATAAAATCAAAAAAAAAAAAAAAAA [CACACA_negctrl_site1727]”: 6.75; “AAAAATATAATATAATGTACACATAAACAAAAAAAA [XGTACX_site3658]”: 7.04. For the sequence “AACAGACATACATACACACATACATACAGACATACA [CACACA_site1942]”, the “gcPBM binding intensity (ln)” value amounted to 7.09. Next, “ATATATATATATTTCGCACACATAATCTTATTAAAT [CACACA_site2579]”: 9.09. Next, “TAAAATAAAACAAACACACACACACCGACACAAAAA [CACACA_site5993]”: 7.05; “ACATTCTATACATACACACCCACACCCAAAAAAAAA [CACACA_site863]”: 7.71. For “TATATATCAATATACACACACACATATTTATTTATA [CACACA_site6858]”, the “gcPBM binding intensity (ln)” value came to 7.05. Next, “ATGTATCATAAGAACTGTGTGGTTACAGACACGAAC [GTGCAC_negctrl_site416]”: 7.04; “TACTATGCCCCATATAAACACACAAATAAAAAGAAT [CACACA_site8857]”: 7.67; “TATAAACCTACATACACACATACAATAAGTAAAATG [CACACA_site1921]”: 6.99. Next, “AACTATATATATAATTCACACATGTTTTAAAATTTT [CACACA_site4971]”: 7.22; “TATAATTAATTAGAAGTGCATTAGGTAACAACTGTC [GTGCAC_site9746]”: 8.02; “CTATGCATTTATAGTGCATGTAAAATATAAGATAAT [TGCATGCA_site71]”: 10.3. “AACGCAGTTTAATATACACACCAAAAAAAAAAAAAG [CACACA_site5643]”: the “gcPBM binding intensity (ln)” value came to 7.04.

Regarding “TTTCCTTTTTTAATATGTACACATATTATTATATCT [XGTACX_site3079]”, the “gcPBM binding intensity (ln)” value stood at 7.07.

Consider “ATATATTCTTATTGCTGTACACATATTTTCTAAAAA [XGTACX_site4851]”, for which the “gcPBM binding intensity (ln)” value was determined as 7.25. Next, “TTAAAAATAAAACAAAGTACTCAAGTTATTGTCTTT [XGTACX_site1584]”: 6.7. With “TATGATATGTATGGAAGTACGAAGAGGGATGATCAG [XGTACX_site1677]”, the “gcPBM binding intensity (ln)” value came to 7.09. Next, “CACGCATACAGACACACACACACACCCATATATATA [CACACA_site636]”: 7.36; CGTAAATTTTTCTAAGTGCATGTTAATTTTTCAATT: 9.1. Next, “TAAATACCTATATGGCGTACTATTATCATAGTATAT [XGTACX_site5423]”: 6.79; “TATTTATTATGATACTCATATTATTCTATGATTAAA [GTGCAC_negctrl_site486]”: 6.67. Next, “TGAAATAAAATTTGTACACACATATATATATATATA [CACACA_site586]”: 9.19.
